# Some of the results follow.
# Assays:
# Test in all cases: glycan array binding signal (z-score within array); higher = stronger binding
# Conditions in all cases: glycan notation: IUPAC condensed, linker removed
# [1] = target: Fuc(a1-2)[Gal(a1-3)]Gal(b1-4)[Fuc(a1-3)]Glc
# Procedure, shortened: (§1)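 Glycan array binding is given as a within-array Z-score, which can be read as non-binding when negative. The arrays, 3228 of them, came from the Consortium for Functional Glycomics database and were retained only where the protein sequence was available. Z-scores were averaged across arrays of the same protein sequence at different concentrations or buffers and across linkers.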
# [2] = target: Fuc(a1-2)[Gal(a1-3)]Gal(b1-4)[Fuc(a1-3)]GlcNAc
# Procedure, shortened: as §1
# [3] = target: Fuc(a1-2)[Gal(a1-3)]Gal(b1-4)[Fuc(a1-3)]GlcNAc(b1-3)GalNAc
# Procedure, shortened: as §1
# [4] = target: Fuc(a1-2)[Gal(a1-4)]Gal(b1-4)GlcNAc
# Procedure, shortened: as §1
# [5] = target: Fuc(a1-2)[GalNAc(a1-3)]Gal
# Procedure, shortened: as §1
# [6] = target: Fuc(a1-2)[GalNAc(a1-3)]Gal(b1-3)GalNAc(a1-3)[Fuc(a1-2)]Gal(b1-4)GlcNAc
# Procedure, shortened: as §1
# [7] = target: Fuc(a1-2)[GalNAc(a1-3)]Gal(b1-3)GlcNAc
# Procedure, shortened: as §1
# [8] = target: Fuc(a1-2)[GalNAc(a1-3)]Gal(b1-3)GlcNAc(b1-2)Man(a1-3)[Fuc(a1-2)[GalNAc(a1-3)]Gal(b1-3)GlcNAc(b1-2)Man(a1-6)]Man(b1-4)GlcNAc(b1-4)GlcNAc
# Procedure, shortened: as §1
# [9] = target: Fuc(a1-2)[GalNAc(a1-3)]Gal(b1-3)GlcNAc(b1-2)Man(a1-3)[Fuc(a1-2)[GalNAc(a1-3)]Gal(b1-3)GlcNAc(b1-2)Man(a1-6)]Man(b1-4)GlcNAc(b1-4)[Fuc(a1-6)]GlcNAc
# Procedure, shortened: as §1
# [10] = target: Fuc(a1-2)[GalNAc(a1-3)]Gal(b1-3)GlcNAc(b1-3)GalNAc
# Procedure, shortened: as §1
# [11] = target: Fuc(a1-2)[GalNAc(a1-3)]Gal(b1-3)GlcNAc(b1-6)GalNAc
# Procedure, shortened: as §1
# [12] = target: Fuc(a1-2)[GalNAc(a1-3)]Gal(b1-4)Glc
# Procedure, shortened: as §1
# [13] = target: Fuc(a1-2)[GalNAc(a1-3)]Gal(b1-4)GlcNAc
# Procedure, shortened: as §1
# [14] = target: Fuc(a1-2)[GalNAc(a1-3)]Gal(b1-4)GlcNAc(b1-2)Man(a1-3)[Fuc(a1-2)[GalNAc(a1-3)]Gal(b1-4)GlcNAc(b1-2)Man(a1-6)]Man(b1-4)GlcNAc(b1-4)GlcNAc
# Procedure, shortened: as §1
# [15] = target: Fuc(a1-2)[GalNAc(a1-3)]Gal(b1-4)GlcNAc(b1-2)Man(a1-3)[Fuc(a1-2)[GalNAc(a1-3)]Gal(b1-4)GlcNAc(b1-2)Man(a1-6)]Man(b1-4)GlcNAc(b1-4)[Fuc(a1-6)]GlcNAc
# Procedure, shortened: as §1
# [16] = target: Fuc(a1-2)[GalNAc(a1-3)]Gal(b1-4)GlcNAc(b1-3)Gal(b1-4)GlcNAc
# Procedure, shortened: as §1
# [17] = target: Fuc(a1-2)[GalNAc(a1-3)]Gal(b1-4)GlcNAc(b1-3)Gal(b1-4)GlcNAc(b1-3)Gal(b1-4)GlcNAc
# Procedure, shortened: as §1
# [18] = target: Fuc(a1-2)[GalNAc(a1-3)]Gal(b1-4)GlcNAc(b1-3)GalNAc
# Procedure, shortened: as §1
# [19] = target: Fuc(a1-2)[GalNAc(a1-3)]Gal(b1-4)[Fuc(a1-3)]GlcNAc
# Procedure, shortened: as §1
# [20] = target: Fuc(a1-2)[GalNAc(a1-3)]Gal(b1-4)[Fuc(a1-3)]GlcNAc(b1-3)GalNAc
# Procedure, shortened: as §1
# [21] = target: Fuc(a1-2)[GalNAc(a1-4)]Gal(b1-4)GlcNAc
# Procedure, shortened: as §1
# [22] = target: Fuc(a1-2)[GalNAc(b1-3)]Gal
# Procedure, shortened: as §1
# [23] = target: Fuc(a1-3)GlcNAc
# Procedure, shortened: as §1
# [24] = target: Fuc(a1-3)[Gal(b1-4)]Glc6S
# Procedure, shortened: as §1
# [25] = target: Fuc(a1-3)[Gal(b1-4)]GlcNAc
# Procedure, shortened: as §1
# [26] = target: Fuc(a1-3)[Gal(b1-4)]GlcNAc(b1-2)Man
# Procedure, shortened: as §1
# [27] = target: Fuc(a1-3)[Gal(b1-4)]GlcNAc(b1-2)Man(a1-3)[Fuc(a1-3)[Gal(b1-4)]GlcNAc(b1-2)Man(a1-6)]Man(b1-4)GlcNAc(b1-4)GlcNAc
# Procedure, shortened: as §1
# [28] = target: Fuc(a1-3)[Gal(b1-4)]GlcNAc(b1-2)Man(a1-3)[Fuc(a1-3)[Gal(b1-4)]GlcNAc(b1-2)Man(a1-6)]Man(b1-4)GlcNAc(b1-4)[Fuc(a1-6)]GlcNAc
# Procedure, shortened: as §1
# [29] = target: Fuc(a1-3)[Gal(b1-4)]GlcNAc(b1-3)Gal(b1-3)[Fuc(a1-4)]GlcNAc
# Procedure, shortened: as §1
# [30] = target: Fuc(a1-3)[Gal(b1-4)]GlcNAc(b1-3)GalNAc
# Procedure, shortened: as §1
binder,measurement,setting,value
"CvGal1 (Crassostrea virginica), A7Y0I5 (protein) MTYQISKISQPFTSYIPNGLHIGKHLLLRGRVSYGTEAFAINLQQNPEPCNGEVAFHFNPRPGEQQCVRNSFDGGSWMDEERDQPHFPFDEGRSFTLRIEVAEEGFRTYVNGKPYVNFSHRLDLGNVHYLYLTEGAEFYDISYQDRYTLPYKSEIPQQMNVGKAVRIRGASQDNDGFSVNFACDPDNENCAFHFNPRPNEGVVVRNANLGGWGDEERDYEAEFPFHPYNYFDAMFICTDDKYLVHVNDKYFTEFNHRGGVDASSFFNIVGNLDIQDVEYFEPLEDDFVKTIPSGLVKGDVLIFRGFMKPGGDTFSINFMNGYSVEDDIAFHLNPRVGEGQVVMNCCMGGAWGDEEREDIPSPLADREPFEVKVVVKKNKFKVYVNGKKCMKFAARGNLEDIKGVNIKGEAYVYEVKLERKLEDSWEYLPGGFRVGGWVVVQAIPKKGSEGFAINFRTGSDEDSDIAFHFNPRLQENCTIRNSCAGGAWGGEERDQPDFPFEKKDTCEIAIQAQPDRFVTYVNGKRYIEFNHRLPLESITCVELTGRADFFEPKFF",glycan array binding signal (z-score),[1],-0.256
same,glycan array binding signal (z-score),[2],-0.263
same,glycan array binding signal (z-score),[3],-0.279
same,glycan array binding signal (z-score),[4],-0.282
same,glycan array binding signal (z-score),[5],-0.003
same,glycan array binding signal (z-score),[6],3.63
same,glycan array binding signal (z-score),[7],4.14
same,glycan array binding signal (z-score),[8],2.75
same,glycan array binding signal (z-score),[9],4.71
same,glycan array binding signal (z-score),[10],1.75
same,glycan array binding signal (z-score),[11],3.97
same,glycan array binding signal (z-score),[12],1.76
same,glycan array binding signal (z-score),[13],2.79
same,glycan array binding signal (z-score),[14],6.1
same,glycan array binding signal (z-score),[15],2.22
same,glycan array binding signal (z-score),[16],3.06
same,glycan array binding signal (z-score),[17],2.45
same,glycan array binding signal (z-score),[18],5.16
same,glycan array binding signal (z-score),[19],-0.277
same,glycan array binding signal (z-score),[20],-0.11
same,glycan array binding signal (z-score),[21],-0.262
same,glycan array binding signal (z-score),[22],-0.306
same,glycan array binding signal (z-score),[23],-0.088
same,glycan array binding signal (z-score),[24],-0.262
same,glycan array binding signal (z-score),[25],-0.261
same,glycan array binding signal (z-score),[26],-0.252
same,glycan array binding signal (z-score),[27],-0.268
same,glycan array binding signal (z-score),[28],-0.229
same,glycan array binding signal (z-score),[29],-0.231
same,glycan array binding signal (z-score),[30],-0.291
